For 31 molecules, binding signal results are on record in paper PMC9911399, “Two distinct binding modes provide the RNA-binding protein RbFox with extraordinary sequence specificity”.

T1: RBFOX1 RRM RbFoxmut (Fox-RRM*) (Homo sapiens, UniProt Q9NWB1 109-208, R118D;E147R;N151S;E152T)
T1 sequence: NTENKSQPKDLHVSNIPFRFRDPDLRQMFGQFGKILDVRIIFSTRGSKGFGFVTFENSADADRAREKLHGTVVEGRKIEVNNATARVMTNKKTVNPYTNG

B1: UUUUAUA (DNA:RNA)
RNA: GGGAGACCGGAAUUCAGAUUGUCCUUUUAUAUUAAAUCCCGUCGUAGCCACCA
DNA 1: CAATCTGAATTCCGGTCTCCC
DNA 2: TGGTGGCTACGACGGGATT
B2: AAAUACU (DNA:RNA)
RNA: B1 RNA with U25A, U26A, U27A, U30C, A31U
DNA 1: CAATCTGAATTCCGGTCTCCC
DNA 2: TGGTGGCTACGACGGGATT
B3: GGCCGGU (DNA:RNA)
RNA: GGGAGACCGGAAUUCAGAUUGUCCGGCCGGUUUAAAUCCCGUCGUAGCCACCA
DNA 1: CAATCTGAATTCCGGTCTCCC
DNA 2: TGGTGGCTACGACGGGATT
B4: GCAGUGA (DNA:RNA)
RNA: B3 RNA with G26C, C27A, C28G, G29U, U31A
DNA 1: CAATCTGAATTCCGGTCTCCC
DNA 2: TGGTGGCTACGACGGGATT
B5: UUAAGCG (DNA:RNA)
RNA: B1 RNA with U27A, U28A, A29G, U30C, A31G
DNA 1: CAATCTGAATTCCGGTCTCCC
DNA 2: TGGTGGCTACGACGGGATT
B6: CUGCCUU (DNA:RNA)
RNA: B3 RNA with G25C, G26U, C27G, G29C, G30U
DNA 1: CAATCTGAATTCCGGTCTCCC
DNA 2: TGGTGGCTACGACGGGATT
B7: AGGAGAA (DNA:RNA)
RNA: B3 RNA with G25A, C27G, C28A, G30A, U31A
DNA 1: CAATCTGAATTCCGGTCTCCC
DNA 2: TGGTGGCTACGACGGGATT
B8: GUCGGUC (DNA:RNA)
RNA: B3 RNA with G26U, C28G, G30U, U31C
DNA 1: CAATCTGAATTCCGGTCTCCC
DNA 2: TGGTGGCTACGACGGGATT
B9: GUGCUAG (DNA:RNA)
RNA: B3 RNA with G26U, C27G, G29U, G30A, U31G
DNA 1: CAATCTGAATTCCGGTCTCCC
DNA 2: TGGTGGCTACGACGGGATT
B10: ACAGCCG (DNA:RNA)
RNA: GGGAGACCGGAAUUCAGAUUGUCCACAGCCGUUAAAUCCCGUCGUAGCCACCA
DNA 1: CAATCTGAATTCCGGTCTCCC
DNA 2: TGGTGGCTACGACGGGATT
B11: UAGGGGA (DNA:RNA)
RNA: B3 RNA with G25U, G26A, C27G, C28G, U31A
DNA 1: CAATCTGAATTCCGGTCTCCC
DNA 2: TGGTGGCTACGACGGGATT
B12: GGGAACG (DNA:RNA)
RNA: B10 RNA with A25G, C26G, A27G, G28A, C29A
DNA 1: CAATCTGAATTCCGGTCTCCC
DNA 2: TGGTGGCTACGACGGGATT
B13: UGCUACG (DNA:RNA)
RNA: B1 RNA with U26G, U27C, U30C, A31G
DNA 1: CAATCTGAATTCCGGTCTCCC
DNA 2: TGGTGGCTACGACGGGATT
B14: GCUUAGA (DNA:RNA)
RNA: B1 RNA with U25G, U26C, U30G
DNA 1: CAATCTGAATTCCGGTCTCCC
DNA 2: TGGTGGCTACGACGGGATT
B15: ACGGUAU (DNA:RNA)
RNA: B10 RNA with A27G, C29U, C30A, G31U
DNA 1: CAATCTGAATTCCGGTCTCCC
DNA 2: TGGTGGCTACGACGGGATT
B16: UUGCGUU (DNA:RNA)
RNA: B3 RNA with G25U, G26U, C27G, G30U
DNA 1: CAATCTGAATTCCGGTCTCCC
DNA 2: TGGTGGCTACGACGGGATT
B17: ACCAAAA (DNA:RNA)
RNA: B10 RNA with A27C, G28A, C29A, C30A, G31A
DNA 1: CAATCTGAATTCCGGTCTCCC
DNA 2: TGGTGGCTACGACGGGATT
B18: GAAUUGA (DNA:RNA)
RNA: B3 RNA with G26A, C27A, C28U, G29U, U31A
DNA 1: CAATCTGAATTCCGGTCTCCC
DNA 2: TGGTGGCTACGACGGGATT
B19: AUCCAGA (DNA:RNA)
RNA: B3 RNA with G25A, G26U, G29A, U31A
DNA 1: CAATCTGAATTCCGGTCTCCC
DNA 2: TGGTGGCTACGACGGGATT
B20: CGUCAGG (DNA:RNA)
RNA: B3 RNA with G25C, C27U, G29A, U31G
DNA 1: CAATCTGAATTCCGGTCTCCC
DNA 2: TGGTGGCTACGACGGGATT
B21: GCAAGAC (DNA:RNA)
RNA: B10 RNA with A25G, G28A, C29G, C30A, G31C
DNA 1: CAATCTGAATTCCGGTCTCCC
DNA 2: TGGTGGCTACGACGGGATT
B22: CUGUGUC (DNA:RNA)
RNA: B1 RNA with U25C, U27G, A29G, A31C
DNA 1: CAATCTGAATTCCGGTCTCCC
DNA 2: TGGTGGCTACGACGGGATT
B23: AUGAGGU (DNA:RNA)
RNA: B3 RNA with G25A, G26U, C27G, C28A
DNA 1: CAATCTGAATTCCGGTCTCCC
DNA 2: TGGTGGCTACGACGGGATT
B24: CUAGUCC (DNA:RNA)
RNA: B10 RNA with A25C, C26U, C29U, G31C
DNA 1: CAATCTGAATTCCGGTCTCCC
DNA 2: TGGTGGCTACGACGGGATT
B25: CAAGUGC (DNA:RNA)
RNA: B10 RNA with A25C, C26A, C29U, C30G, G31C
DNA 1: CAATCTGAATTCCGGTCTCCC
DNA 2: TGGTGGCTACGACGGGATT
B26: CGGCGUA (DNA:RNA)
RNA: B3 RNA with G25C, C27G, G30U, U31A
DNA 1: CAATCTGAATTCCGGTCTCCC
DNA 2: TGGTGGCTACGACGGGATT
B27: UGGAUGA (DNA:RNA)
RNA: B3 RNA with G25U, C27G, C28A, G29U, U31A
DNA 1: CAATCTGAATTCCGGTCTCCC
DNA 2: TGGTGGCTACGACGGGATT
B28: UCACGGU (DNA:RNA)
RNA: B3 RNA with G25U, G26C, C27A
DNA 1: CAATCTGAATTCCGGTCTCCC
DNA 2: TGGTGGCTACGACGGGATT
B29: CGAACGU (DNA:RNA)
RNA: B3 RNA with G25C, C27A, C28A, G29C
DNA 1: CAATCTGAATTCCGGTCTCCC
DNA 2: TGGTGGCTACGACGGGATT
B30: CGACAAC (DNA:RNA)
RNA: B3 RNA with G25C, C27A, G29A, G30A, U31C
DNA 1: CAATCTGAATTCCGGTCTCCC
DNA 2: TGGTGGCTACGACGGGATT
B31: UUCGUAU (DNA:RNA)
RNA: B3 RNA with G25U, G26U, C28G, G29U, G30A
DNA 1: CAATCTGAATTCCGGTCTCCC
DNA 2: TGGTGGCTACGACGGGATT

Where a chain is given by its changes, count along the chain named. Some of the results follow.

This assay addresses T1, RBFOX1 RRM RbFoxmut (Fox-RRM*). Description: EMSA; HiTS-Eq, 1 nM pool, 10 min; buffer printed only for the single-RNA assays: 10 mM Tris pH 7.5, 150 mM NaCl, 3.4 mM EDTA, 0.001% NP-40, 30 C. To be noted: tags: His6 N-terminal (pET28a); label: 5' 32P. A digest of the protocol:
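Purified wild-type or mutant RbFox RRM at increasing concentrations was equilibrated with 1 nM of 5′-radiolabelled RNA carrying 7 randomized nucleotides for 10 min in 50 µL. Unbound RNA was separated by 8% native PAGE and sequenced. Relative association constants came from read-count changes of each RNA species compared with the control reaction, normalised to the cognate motif.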
On to B1, for which the binding signal was 0.15 KA relative to UGCAUGU.

For the molecule B2, the binding signal was 0.0921 KA relative to UGCAUGU.

Turning to B3, the binding signal is 0.103 KA relative to UGCAUGU.

Regarding B4, the binding signal was 0.0882 KA relative to UGCAUGU.

Take B5: the binding signal is 0.104 KA relative to UGCAUGU.

For B6, the binding signal was 0.0749 KA relative to UGCAUGU.

As to B7, the binding signal is 0.123 KA relative to UGCAUGU.

Take B8: the binding signal was 0.171 KA relative to UGCAUGU.

Turning to B9, the binding signal is 0.145 KA relative to UGCAUGU.

Consider B10, for which the binding signal is 0.118 KA relative to UGCAUGU.

As for B11, the binding signal is 0.0788 KA relative to UGCAUGU.

Take B12: the binding signal is 0.472 KA relative to UGCAUGU.

With B13, the binding signal was 0.264 KA relative to UGCAUGU.

B14: the binding signal is 0.122 KA relative to UGCAUGU.

Take B15: the binding signal is 0.112 KA relative to UGCAUGU.

B16: the binding signal is 0.126 KA relative to UGCAUGU.

Consider B17, for which the binding signal was 0.0761 KA relative to UGCAUGU.

B18: the binding signal is 0.129 KA relative to UGCAUGU.

Turning to B19, the binding signal is 0.115 KA relative to UGCAUGU.

Take B20: the binding signal is 0.113 KA relative to UGCAUGU.

Turning to B21, the binding signal was 0.0722 KA relative to UGCAUGU.

As for B22, the binding signal was 0.436 KA relative to UGCAUGU.

Consider B23, for which the binding signal is 0.128 KA relative to UGCAUGU.

In the case of B24, the binding signal was 0.0686 KA relative to UGCAUGU.

For B25, the binding signal was 0.113 KA relative to UGCAUGU.

As to B26, the binding signal is 0.162 KA relative to UGCAUGU.

In the case of B27, the binding signal was 0.401 KA relative to UGCAUGU.

For B28, the binding signal was 0.0803 KA relative to UGCAUGU.

Turning to B29, the binding signal is 0.175 KA relative to UGCAUGU.

As for B30, the binding signal was 0.0312 KA relative to UGCAUGU.

Turning to B31, the binding signal is 0.139 KA relative to UGCAUGU.
